This passage reports fractional viability results from the supplement of paper PMC5919970.

Each structure is given as a SMILES string. Where “and” joins values, the source holds several entries; their conditions need not be identical. Equal values may be shown once. Where a name gives a salt, the structure may show the parent alone. Whole data set: some 2,000 compounds, median “fractional viability relative to vehicle” near 0.92, cut for the lowest 2% near 0.11. The list shows a part of the results.

The assay has as its system TYKNU. Kind of assay: fractional viability relative to vehicle; TYKNU is a high-grade serous ovarian cancer line; higher = less growth inhibition. The conditions noted are these: 72 h, genotype: OPA1 knockout (sgOPA1 #2). In outline:
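Drug treatment lasted 72 h, with cells grown at 37 °C in 5% CO2 in RPMI 1640 supplemented with 10% FBS. Beforehand, TYKNU control cells or their lentiCRISPRv2 knockout derivatives had been seeded at 500 cells per well into drug-stamped 384-well plates carrying a ~2100-compound library at 2 or 10 μM, in duplicate. Viability came from Cell Titer Glo luminescence, with averaged duplicate treatment wells normalised to duplicate control wells in the same plate position.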

On to `CC1(C)CNc2cc(NC(=O)c3cccnc3NCc3ccncc3)ccc21` [Motesanib Diphosphate (AMG-706)], for which the fractional viability runs as follows: (2uM) 1.21; (10uM) 0.923.
For `Cc1nc(C#Cc2ccnc(Cl)c2)c(C)n1-c1ccc(OC(F)(F)F)cc1`, the fractional viability (2uM) was found to be 1.08 and the fractional viability (10uM) stood at 0.815.
The corresponding values for `CN(C)c1cccc(-c2c3c(=O)n(-c4ccccc4Cl)[nH]c3cc(=O)n2C)c1` are 1.05 and 1.48.
The corresponding values for `COC(=O)C1=C(C)NC(C)=C(C(=O)OCCN(C)Cc2ccccc2)C1c1cccc([N+](=O)[O-])c1` (centres undefined) [Nicardipine HCl] are 0.927 and 0.678.
The like results for `OC[C@H]1O[C@@H](c2ccc(Cl)c(Cc3ccc(O[C@H]4CCOC4)cc3)c2)[C@H](O)[C@@H](O)[C@@H]1O` were, in that order, 0.787 and 0.736.
Turning to `Cc1cc(-c2ccc(CC(=O)Nc3ccc(-c4cccnc4)cc3)cc2)ccn1`, the fractional viability came out at 0.912 (2uM) and 1.02 (10uM).
The corresponding values for `COc1ccc(C2CC(c3ccccc3)=NN2c2ccc(S(N)(=O)=O)cc2)cc1` (centres undefined) are 0.822 and 0.932.
The like results for `COCCOc1ccc2c(c1)ncn2-c1ccc2cccc(N3CCC(N)CC3)c2n1` were, in that order, 0.873 and 0.323.
The like results for `Cc1cc(Nc2cc(N3CCN(C)CC3)nc(/C=C/c3ccccc3)n2)n[nH]1` were, in that order, 0.844 and 0.57.
Take `CNCc1cc(-c2ccccc2F)n(S(=O)(=O)c2cccnc2)c1`: the fractional viability came out at 0.781 (2uM) and 0.821 (10uM).
For `Cc1nn(C)c2c1C(c1ccc(C(F)(F)F)cc1)C(C#N)=C(N)O2` (centres undefined), the fractional viability worked out at 0.998 (2uM) and 0.98 (10uM).
The like results for `O=C1C(O)=C([C@H]2CC[C@H](c3ccc(Cl)cc3)CC2)C(=O)c2ccccc21` [Atovaquone] were, in that order, 1.08 and 0.837.
For the compound `Cc1ccccc1C(OCCN(C)C)c1ccccc1` (centres undefined) [Orphenadrine Citrate], the fractional viability (2uM) stood at 0.981 and the fractional viability (10uM) stood at 1.02.
For the compound `O=C1CCc2ccc(OCCCCN3CCN(c4cccc(Cl)c4Cl)CC3)cc2N1` [Aripiprazole], the fractional viability by setting is: (2uM) 1.04; (10uM) 0.759.
Compound `CCCCCCCCCCCC1=C(O)C(=O)C=C(O)C1=O` [Embelin] came in with a fractional viability (2uM) of 1.12 and a fractional viability (10uM) of 0.812.
The like results for `COc1c2ccoc2cc2oc(=O)ccc12` [Bergapten] were, in that order, 0.927 and 0.906.
As for `CCc1ccc(OCc2ccccc2C(=O)Nc2ccc3nc(C)cc(N)c3c2)cc1`, the fractional viability came out at 0.16 (2uM) and 0.0251 (10uM).
For `CN(C)CCc1c[nH]c2ccc(CS(=O)(=O)N3CCCC3)cc12` [Almotriptan Malate], the fractional viability runs as follows: (2uM) 0.967; (10uM) 1.11.
`Cn1nc(C(C)(C)C)cc1C(=O)N[C@@H](Cc1cccc(Cl)c1)C(=O)NCC#N` [Cathepsin Inhibitor 1]: the fractional viability is, setting by setting: (2uM) 0.947; (10uM) 0.991.
On to `CN(c1ncccc1CNc1nc(Nc2ccc3c(c2)CC(=O)N3)ncc1C(F)(F)F)S(C)(=O)=O`, for which the fractional viability reads like this: (2uM) 0.837 and 0.713 and 0.812; (10uM) 0.605 and 0.474 and 0.584.
With `O=C(Nc1ccccc1)N1CCN(c2nc(-c3ccccc3)ns2)CC1`, the fractional viability turned out to be 0.909 (2uM) and 1.02 (10uM).
The like results for `Clc1cccc(CN=C2Nc3ccccc3NC23CCNCC3)c1` [Liproxstatin-1] were, in that order, 0.816 and 0.729.
The like results for `CC(CNC(=O)c1cccnc1)NC(=O)c1cccnc1` (centres undefined) [Nicaraven] were, in that order, 0.886 and 0.93.
For `CN1CCCN(C(=O)c2cccc(-c3ccc(/C=C4/C(=O)Nc5ccc(Cl)cc54)o3)c2)CC1`, the fractional viability by setting is: (2uM) 0.132; (10uM) 0.0251.
The like results for `CCCCCCCCOc1ccccc1C(=O)Nc1ccc(C(=O)OCC[N+](C)(CC)CC)cc1` [Otilonium Bromide] were, in that order, 0.988 and 0.817.
The corresponding values for `CN1CCN2c3ccccc3Cc3ccccc3C2C1` (centres undefined) [Mianserin HCl] are 1.26 and 1.
The like results for `CCCCc1ncc(/C=C(\Cc2cccs2)C(=O)O)n1Cc1ccc(C(=O)O)cc1` [Eprosartan Mesylate] were, in that order, 0.994 and 0.884.
With `CCOC(=O)C1=C(C)NC(C)=C(C(=O)OC)C1c1cccc(Cl)c1Cl` (centres undefined) [Felodipine], the fractional viability runs as follows: (2uM) 1.04; (10uM) 0.865.
The corresponding values for `CN1CCN(Cc2ccc(-c3cnc4[nH]cc(-c5ccc6[nH]ccc6c5)c4c3)cc2)CC1` are 0.872 and 1.1.
The like results for `CC1(C)CC[C@]2(NC(=O)C(C)(F)F)CC[C@]3(C)[C@H](C(=O)C=C4[C@@]5(C)C=C(C#N)C(=O)C(C)(C)[C@@H]5CC[C@]43C)[C@@H]2C1` [Omaveloxolone (RTA-408)] were, in that order, 0.166 and 0.0407.
On to `CCOC(=O)c1ccc(NC2CCCCC2)c(N)c1` [Ferrostatin-1 (Fer-1)], for which the fractional viability is 1.03 (2uM) and 0.934 (10uM).
The corresponding values for `O=C1c2c(O)ccc(O)c2C(=O)c2c(NCCNCCO)ccc(NCCNCCO)c21` [Mitoxantrone HCl] are 0.239 and 0.185.
The like results for `O=C1c2c(O)ccc(O)c2C(=O)c2c(NCCNCCO)ccc(NCCNCCO)c21` [Mitoxantrone] were, in that order, 0.223 and 0.317.
The corresponding values for `COc1ccc2[nH]cc(/C=C3\C(=O)Nc4ccc(NC(=O)CCN5CCCCC5)cc43)c2c1` are 0.938 and 0.924.
For `O=C(NC(Cc1cc(=O)[nH]c2ccccc12)C(=O)O)c1ccc(Cl)cc1` (centres undefined) [Rebamipide], the fractional viability amounted to 1.11 (2uM) and 1.01 (10uM).
The like results for `CC(C)c1cc(C(C)C)c(CC(=O)NS(=O)(=O)Oc2c(C(C)C)cccc2C(C)C)c(C(C)C)c1` [Avasimibe] were, in that order, 0.949 and 0.805.
As to `O=C(NNc1nc2cc(F)ccc2n2cccc12)c1cnccn1`, the fractional viability reads like this: (2uM) 0.576; (10uM) 0.643.
Take `COC(=O)/C=C/C(=O)OC` [Dimethyl Fumarate]: the fractional viability is, setting by setting: (2uM) 1.19; (10uM) 0.852.
On to `OCC(CO)N[C@H]1C[C@](O)(CO)[C@@H](O)[C@H](O)[C@H]1O` [Voglibose], for which the fractional viability is 0.882 (2uM) and 0.955 (10uM).
Turning to `CCc1ccc(/C=C2/SC(=S)NC2=O)cc1`, the fractional viability runs as follows: (2uM) 0.944; (10uM) 0.918.
On to `Cc1ccc(Nc2nccc(N(C)c3ccc4c(C)n(C)nc4c3)n2)cc1S(N)(=O)=O` [Pazopanib], for which the fractional viability by setting is: (2uM) 1.14; (10uM) 0.605.
The corresponding values for `CCCCC(=O)N(Cc1ccc(-c2ccccc2-c2nnn[nH]2)cc1)[C@H](C(=O)O)C(C)C` [Valsartan] are 1.05 and 1.01.
With `COc1cc(Nc2ncc3c(n2)-c2ccc(Cl)cc2C(c2c(F)cccc2OC)=NC3)ccc1C(=O)O` [Alisertib (MLN8237)], the fractional viability is, setting by setting: (2uM) 0.867; (10uM) 0.77.
As to `COc1cccc(-c2cc(F)ccc2C2Cc3nc(N)nc(C)c3C(=O)N2)n1` (centres undefined), the fractional viability by setting is: (2uM) 0.471; (10uM) 0.534.
The corresponding values for `O=c1cc(N2CCOCC2)oc2c(-c3ccccc3)cccc12` are 1.18 and 1.11.
The like results for `Cc1cnc(NC(=O)Nc2cc(Br)c(C)cc2OC[C@@H]2CNCCO2)cn1` were, in that order, 0.775 and 0.615.
`Nc1cc(C(F)(F)F)c(-c2cc(N3CCOCC3)nc(N3CCOCC3)n2)cn1` [BKM120 (NVP-BKM120, Buparlisib)] yielded a fractional viability (2uM) of 0.487 and a fractional viability (10uM) of 0.247.
In the case of `Cc1c(C(=O)Nc2ccc(N3C[C@@H](C)O[C@@H](C)C3)nc2)cccc1-c1ccc(OC(F)(F)F)cc1` [LDE225 (NVP-LDE225,Erismodegib)], the fractional viability (2uM) is 1.06 and the fractional viability (10uM) was 0.917.
The corresponding values for `Cc1ccc(Sc2cncc3sc(C(N)=O)cc23)cc1` are 1.04 and 0.928.
The like results for `O=C(O)c1ccccc1Nc1cccc(C(F)(F)F)c1` [Flufenamic acid] were, in that order, 0.889 and 0.909.
For the compound `Clc1ccc(C(c2ccccc2Cl)C(Cl)Cl)cc1` (centres undefined) [Mitotane], the fractional viability runs as follows: (2uM) 0.942; (10uM) 0.979.
Turning to `O=C1O[C@H]([C@@H](O)CO)C(O)=C1O` [Vitamin C], the fractional viability was 0.931 (2uM) and 0.966 (10uM).
Take `Cc1cccc(C)c1OCC(=O)N[C@@H](Cc1ccccc1)[C@@H](O)C[C@H](Cc1ccccc1)NC(=O)[C@H](C(C)C)N1CCCNC1=O` [Lopinavir]: the fractional viability runs as follows: (2uM) 1.13; (10uM) 1.01.
Take `CCCCN1CCCC[C@H]1C(=O)Nc1c(C)cccc1C` [Levobupivacaine HCl]: the fractional viability by setting is: (2uM) 1.06; (10uM) 0.949.
As for `CCCc1cc2c(N3CCN(C4=NCC(C)(C)S4)CC3)ncnc2s1` [MI-2 (Menin-MLL Inhibitor)], the fractional viability was found to be 0.828 (2uM) and 0.711 (10uM).
On to `CNCc1ccc(C)c(NC(=O)c2ccc(Nc3nc(-c4ccccc4)c4ccccc4n3)cc2)c1`, for which the fractional viability turned out to be 1.13 (2uM) and 0.134 (10uM).
The corresponding values for `Nc1ccc(C(=O)O)c(O)c1` [Sodium 4-Aminosalicylate] are 0.937 and 0.914.
Regarding `COc1cc(CCc2cc(NC(=O)c3ccc(N4CC(C)NC(C)C4)cc3)n[nH]2)cc(OC)c1` (centres undefined), the fractional viability is, setting by setting: (2uM) 1.3; (10uM) 0.804.
The like results for `Cc1[nH]nc2ccc(-c3cncc(OC[C@@H](N)Cc4ccccc4)c3)cc12` were, in that order, 0.484 and 0.252.
The like results for `CC(C)[C@H](O)C(=O)N[C@@H](C)C(=O)N[C@@H]1C(=O)N(C)CCc2ccccc21` were, in that order, 1.3 and 1.03.
The like results for `Nc1ccc(/N=N/c2ccccc2)c(N)n1` [Phenazopyridine HCl] were, in that order, 0.997 and 0.876.
Turning to `CCC(=O)O[C@]1(C(=O)SCF)[C@H](C)C[C@H]2[C@@H]3C[C@H](F)C4=CC(=O)C=C[C@]4(C)[C@@]3(F)[C@@H](O)C[C@@]21C` [Fluticasone propionate], the fractional viability (2uM) was 1.07 and the fractional viability (10uM) was determined as 0.822.
The like results for `Cc1c(C(=O)N2CCOc3ccc(-c4ccc(N)nc4)cc3C2)ccc(S(C)(=O)=O)c1F` were, in that order, 0.827 and 0.602.
As to `CC(NCCc1ccc(O)cc1)C(O)c1ccc(O)cc1` (centres undefined) [Ritodrine HCl], the fractional viability by setting is: (2uM) 1.09; (10uM) 0.754.
`C[C@H](Nc1ncnc2nc[nH]c12)c1cc2cccc(Cl)c2c(=O)n1-c1ccccc1` registered a fractional viability (2uM) of 0.926 and a fractional viability (10uM) of 1.05.
Consider `CC(C)(O)CC(=O)NCCn1ccc2ncnc(Nc3ccc(Oc4cccc(C(F)(F)F)c4)c(Cl)c3)c21`, for which the fractional viability was 0.896 (2uM) and 0.76 (10uM).
The corresponding values for `CC(C)c1cnn2c(NCc3ccccc3)cc(NCCCCCCN)nc12` are 1.18 and 0.799.
Take `O=C(c1ccc(F)c(F)c1Nc1ccc(I)cc1F)N1CC(O)([C@@H]2CCCCN2)C1` [Cobimetinib (GDC-0973, RG7420)]: the fractional viability is 0.722 (2uM) and 0.831 (10uM).
The like results for `O=S(=O)(c1cccc2cnccc12)N1CCCNCC1` [Fasudil (HA-1077) HCl] were, in that order, 0.988 and 1.16.
As for `COc1cc2nc(N3CCCN(C)CC3)nc(NC3CCN(Cc4ccccc4)CC3)c2cc1OC`, the fractional viability is, setting by setting: (2uM) 0.506; (10uM) 0.0546.
The like results for `O=C(CSc1nc2c(c(=O)n1-c1ccccc1)SCC2)Nc1ccc(-c2ccccc2)cn1` were, in that order, 1.09 and 0.948.
The corresponding values for `CCC(C)(C)C(=O)O[C@H]1C[C@@H](C)C=C2C=C[C@H](C)[C@H](CC[C@@H]3C[C@@H](O)CC(=O)O3)[C@H]21` [Simvastatin] are 0.852 and 0.602.
